The text below walks through data of the supplement of paper PMC3334620.

Over roughly 33,000 sequences, “E-score (-0.5 to 0.5)” has its median near -0.035; the highest 2% begin near 0.35. Some of the results follow.

This assay concerns the target T1, Pdr3 (UniProt P33200).
T1 sequence: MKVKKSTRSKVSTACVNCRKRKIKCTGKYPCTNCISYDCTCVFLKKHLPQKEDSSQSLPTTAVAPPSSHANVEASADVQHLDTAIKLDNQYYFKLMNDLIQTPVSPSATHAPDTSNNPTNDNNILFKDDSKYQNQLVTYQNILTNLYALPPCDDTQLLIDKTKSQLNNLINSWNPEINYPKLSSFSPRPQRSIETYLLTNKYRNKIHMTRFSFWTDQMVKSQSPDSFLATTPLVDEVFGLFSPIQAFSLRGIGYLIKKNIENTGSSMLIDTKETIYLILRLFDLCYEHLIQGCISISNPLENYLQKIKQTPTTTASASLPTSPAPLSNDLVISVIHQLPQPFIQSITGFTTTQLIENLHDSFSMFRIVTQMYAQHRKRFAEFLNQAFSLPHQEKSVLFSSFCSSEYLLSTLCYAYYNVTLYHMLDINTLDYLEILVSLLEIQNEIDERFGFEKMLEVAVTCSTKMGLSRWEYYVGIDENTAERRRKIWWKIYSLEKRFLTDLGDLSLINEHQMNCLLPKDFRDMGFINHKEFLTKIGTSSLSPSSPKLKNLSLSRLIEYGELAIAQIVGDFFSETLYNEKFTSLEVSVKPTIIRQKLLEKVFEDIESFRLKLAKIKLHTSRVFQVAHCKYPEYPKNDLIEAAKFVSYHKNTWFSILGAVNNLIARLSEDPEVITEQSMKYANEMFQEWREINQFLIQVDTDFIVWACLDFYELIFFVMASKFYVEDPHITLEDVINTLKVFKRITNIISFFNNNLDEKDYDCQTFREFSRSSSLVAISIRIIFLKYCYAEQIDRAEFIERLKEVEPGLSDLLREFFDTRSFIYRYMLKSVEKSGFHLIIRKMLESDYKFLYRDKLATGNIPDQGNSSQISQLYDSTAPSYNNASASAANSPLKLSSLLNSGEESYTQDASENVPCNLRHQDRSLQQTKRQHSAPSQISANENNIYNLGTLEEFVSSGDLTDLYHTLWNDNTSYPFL
The experiment in a line: PBM E-score (8-mer binding enrichment) (E-score (-0.5 to 0.5)); higher = stronger / more preferred TF binding; most listed sequences are background and not binding sites. The settings on record: protein concentration: 200 nM; construct: GST-full length. The procedure, abridged:
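Universal all-10-mer Agilent arrays, double-stranded by primer extension on fresh or once-stripped slides, were probed with about 100-200 nM GST-tagged yeast transcription factors made by PURExpress. Fluorescent anti-GST detected bound protein, and masliner normalised the scans. E-scores from the Universal PBM Analysis Suite were given to each ungapped eight-base word pooled with its reverse complement.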
For the sequence CCCGCTTA, the “PBM E-score” value was 0.00181.
The result for GCAGCTCC reads 0.144; that for CAGCCATG, -0.166.
The result for GTTGCGTA reads -0.0271; that for CGAAATAC, 0.151.
The result for AAGCTATA reads -0.173; that for ATCTCGTA, -0.243.
Turning to AACGGAGT, the “PBM E-score” value was 0.373.
The result for ACGTAAGC reads -0.169.
The value for CGAGGTGC was 0.207; that for GCTAGCTA was -0.199; that for GGTTAGAA was -0.283.
The value for TACTAGAA was -0.0849.
As for CAGGCGAC, the “PBM E-score” value is -0.102.
The value for AGTGTGGG was -0.0143; that for AGCAAAGG was -0.134; that for GGCGATTA was 0.0397.
The result for AATGCTAA reads -0.135; that for ACGCAGAG, -0.077; that for GGTTAAGA, -0.0956.
The value for GGTGAAAC was 0.0534; that for TCAGATCA was -0.159.
Regarding GTACGAGA, the “PBM E-score” value is -0.0245.
The result for ACATGACC reads -0.157; that for AGTAAGAC, -0.206; that for GAAACTCC, 0.0961.
The result for CTTTTATC reads 0.05.
The value for ATTTCGAA was -0.0579; that for CTTGTCCC was 0.19.
On to GTAGTACA, for which the “PBM E-score” value was -0.11.
For ATCACGAT, the “PBM E-score” value is -0.0869.
The value for ACGCTAAG was -0.35; that for GGACAGGA was -0.126.
The result for ATCGAAGG reads -0.0602.
The result for GTGTGAAA reads 0.127; that for AACTTGAG, -0.238.
As for ATGTGCTA, the “PBM E-score” value was -0.0352.
Regarding AGTAACTC, the “PBM E-score” value came out at 0.00658.
For the sequence GTCCCACA, the “PBM E-score” value was found to be 0.0823.
The value for CATCCACA was -0.0598.
The result for CGACCATC reads 0.0557; that for CTATCTGA, -0.22; that for GCCGTCGC, 0.0748.
The value for ACGCTTTA was -0.233; that for TAATCTGA was -0.121.
As to CGATTTCC, the “PBM E-score” value turned out to be 0.299.
The value for CAGGTCAC was -0.277.
The result for GGCAGATA reads 0.093; that for CCCACCGA, -0.0239; that for CGATGCCG, 0.188.
The result for CCCATCCA reads 0.00501; that for CAAAGCAA, 0.0611.
As for CGAGCGGC, the “PBM E-score” value worked out at 0.228.
The result for AGTCAGTC reads -0.153; that for GAGCTAAC, 0.0315.
In the case of AATTCCGG, the “PBM E-score” value was determined as 0.449.
The value for ACCCCAAT was -0.105.
The result for GCCGGCCA reads 0.302; that for ACTCAACC, -0.035.
The result for TATACTCA reads -0.15; that for CCGAAGAA, 0.173; that for ACGAACCC, 0.122.
Take GCCAAACC: the “PBM E-score” value is 0.0626.
The value for GTGAGACA was 0.00796; that for ATCCTATC was 0.0308.
The result for ATAGGAAA reads -0.00732.
The value for AGTCCTTC was -0.21.
As to ATAATTTC, the “PBM E-score” value stood at 0.182.
The result for GCTCCTCA reads -0.236.
The result for AGTCAGTA reads -0.109.
The result for ATGTCCGC reads 0.223; that for CTGTCTGA, -0.0812.
On to TCTGTCAA, for which the “PBM E-score” value was -0.168.
The value for CTCGTATC was -0.0772; that for CAACAGTC was -0.241.
For CGGTTTCC, the “PBM E-score” value is 0.268.
The result for AATCACGA reads -0.0373.
The value for CCCTAGGA was -0.0471; that for AGGTACAT was -0.32; that for TTAGATAA was -0.189.
The value for CGTGCATA was -0.0353; that for GACATCGC was -0.0124; that for ATAAGGTG was -0.0163.
Take ATGGTCCA: the “PBM E-score” value was -0.203.
The result for TCGGACAA reads 0.297.
Take GAATTATC: the “PBM E-score” value is -0.00046.
